# Measurements published in ChEMBL document CHEMBL4888484, “Replenishing the malaria drug discovery pipeline: Screening and hit evaluation of the MMV Hit Generation Library 1 (HGL1) against asexual blood stage Plasmodium falciparum ,using a nano luciferase reporter read-out” (2022).
# The whole screen tested about 150,000 compounds, of which about 540 (0.36%) showed an effect of 50% or more. The list shows a part of the results.
# Tested on: Plasmodium falciparum
# Assay: Primary screen in NF54 nanoGlo assay, in single point, at 2uM, 72h; a lower Z score goes with more inhibition
# Assay type: functional, Erythrocyte
# Conditions: timepoint 72 hour
structure (smiles),measurement,setting,value
O=C(NCc1nccs1)c1ccc(-c2ccco2)[nH]c1=O,% Inhibition,,-2%
same,Z score,,0.15
Cc1cc(S(=O)(=O)N2CCc3cc4ccccc4nc32)ccc1F,% Inhibition,,-2%
same,Z score,,0.23
Cc1cc(Oc2ncccc2C#N)ccc1NC(=O)c1ccc2c(c1)OCO2,% Inhibition,,28%
same,Z score,,-3.76
O=C(Cn1nnc2ccccc21)N(Cc1nc(-c2ccccc2)cs1)C1(C(=O)Nc2ccc3c(c2)OCO3)CCCC1,% Inhibition,,-7%
same,Z score,,0.77
COc1cc(-c2ccc(CO)cc2CO)c(Cl)cn1,% Inhibition,,-5%
same,Z score,,0.97
Cn1nc(C(=O)N[C@H]2CCn3nccc3C2)ccc1=O,% Inhibition,,-11%
same,Z score,,1.76
CCc1ccc(F)cc1C(=O)N1CCN(CC(=O)Nc2nncs2)CC1,% Inhibition,,-4%
same,Z score,,0.72
O=C(Nc1cccc2ccccc12)c1ccc2c(c1)C(=O)N(c1cccc3ccccc13)C2=O,% Inhibition,,-1%
same,Z score,,0.17
CCOCCO/C(=N/C(=O)c1ccccc1F)NC[C@H]1CCCO1,% Inhibition,,3%
same,Z score,,-0.32
O=C1CN(Cc2cc(C#CCO)cs2)CCCN1,% Inhibition,,-11%
same,Z score,,1.59
C[C@H](NC(=O)c1cccc(Cl)c1Cl)C(=O)NC1(C(N)=O)CCCCC1,% Inhibition,,5%
same,Z score,,-0.58
CCCc1nc(C(=O)N2C[C@H](NC(C)=O)[C@@H](c3ccc(C)cc3)C2)cs1,% Inhibition,,1%
same,Z score,,-0.2
CC(C)(C)C1CCC2(CC1)NCCN=C2NCc1ccc(Cl)cc1 (stereo not given),% Inhibition,,-3%
same,Z score,,0.47
O=S(=O)(Cc1cc(Cl)cc(Cl)c1)NCCC(F)(F)F,% Inhibition,,-10%
same,Z score,,1.73
Cc1oncc1C(=O)N(Cc1cccn1C)C1CC1,% Inhibition,,0%
same,Z score,,-0.06
Cc1cc(N2CCCNC(=O)C2)nc(N(C)C)n1,% Inhibition,,-3%
same,Z score,,0.57
O=C(Nc1cccc(C2CC2)n1)[C@H]1CCOC2(CCC2)C1,% Inhibition,,-21%
same,Z score,,2.09
COc1ccc2c(c1)CCN(S(=O)(=O)CCNC(=O)c1snnc1C)C2,% Inhibition,,-8%
same,Z score,,0.89
CCC(NCC(O)c1ccco1)c1ccccc1F (stereo not given),% Inhibition,,-11%
same,Z score,,1.22
CC(=O)N(C)c1ccc(/C=C2\C=Cc3ccccc32)cc1,% Inhibition,,-7%
same,Z score,,0.86
Cc1ccc(C(=O)Nc2ccc(N3CCCN(C(=O)C4CCCC4)CC3)c(C(=O)N3CCCCC3)c2)cc1,% Inhibition,,-4%
same,Z score,,0.58
O=C(O)c1ccccc1[C@H]1CCN(c2ncccn2)C1,% Inhibition,,-3%
same,Z score,,0.6
O=C(C1CC1)[C@@H]1CN(C(=O)c2ccnn2C2CCCC2)CCO1,% Inhibition,,-10%
same,Z score,,1.26
CCCOc1ccc(C(=O)N2CCCO[C@@H](C)C2)cc1,% Inhibition,,1%
same,Z score,,-0.17
CCOc1cccc(Cl)c1CN1CC[C@H](c2nc(C)no2)C1,% Inhibition,,5%
same,Z score,,-1.01
c1cnn(-c2ccc(CN3CCOC4(CCOCC4)C3)cc2)c1,% Inhibition,,-1%
same,Z score,,0.14
Cc1cc(-c2nc(-c3ccccc3)nn2-c2ccccn2)c(=O)n(C)c1C,% Inhibition,,-10%
same,Z score,,1.4
Cc1ccc(S(=O)(=O)Nc2ccc(C)n(CC(=O)NCC(C)C)c2=O)cc1,% Inhibition,,-22%
same,Z score,,3.01
COC(=O)c1ccc(C(=O)NC2CCN(c3cc4c(nn3)CCCC4)CC2)cc1,% Inhibition,,-16%
same,Z score,,2.71
CC1CCN(S(=O)(=O)CC(=O)Nc2ccc(OCc3nccn3C)cc2)CC1,% Inhibition,,-5%
same,Z score,,0.84
Cc1ccsc1CN(C)C(=O)[C@H]1CCc2nnn(C)c2C1,% Inhibition,,-4%
same,Z score,,0.77
CCCN(C(=O)[C@H]1CC(=O)N(C(C)C)C1)C1CC1,% Inhibition,,0%
same,Z score,,-0.04
Cc1nc(N2CCC(C(=O)NC[C@H]3CCc4ccccc4O3)CC2)nc2cc(S(C)(=O)=O)ccc12,% Inhibition,,-16%
same,Z score,,1.93
CC(C)CC[C@H]1CCCN1C(=O)c1ccc2[nH]c(=O)n(C)c2c1,% Inhibition,,3%
same,Z score,,-0.5
Cc1noc(C)c1CN(C)C(=O)c1c[nH]nn1,% Inhibition,,-5%
same,Z score,,0.76
COCCN1C[C@]2(CCCN(C(=O)Cc3ccc(O)cc3)C2)CCC1=O,% Inhibition,,-12%
same,Z score,,2.44
Cc1ccc2nc(-c3cccc(Cl)c3)c(NC(=O)COc3ccc(Cl)cc3)n2c1,% Inhibition,,16%
same,Z score,,-1.79
COc1cccc(CCc2ccccc2OC[C@H](CN(C)C)OC(=O)CCC(=O)O)c1,% Inhibition,2 µM,7%
O=C(NC1CCCCC1)c1cc2n(n1)CCCC2,% Inhibition,,-14%
same,Z score,,1.56
O=C(Nc1cccc(-n2cn[nH]c2=O)c1)C1CC12CCOC2 (stereo not given),% Inhibition,,-16%
same,Z score,,1.49
Cc1ccc(C(=O)N2CCC(N3C(=O)N(Cc4cccnc4)C[C@]34CCOC4)CC2)cc1,% Inhibition,,-4%
same,Z score,,0.58
CCN(C1CCN(C(=O)Nc2ccc3sncc3c2)CC1)S(C)(=O)=O,% Inhibition,,-8%
same,Z score,,1.18
Cc1ccc(O)c(NS(=O)(=O)N(C)C(C)C)c1,% Inhibition,,-4%
same,Z score,,0.8
